Measured values from PubChem BioAssay AID1259407 (Chemical Carcinogenesis Research Information System (CCRIS), 2018).
Entries after “also recorded” stand apart in the source; their conditions may differ. The source holds more than one record for some entries. The other results are left out here. How the calls were made is not given here. An entry can have further records. Values given together do not match, cause unknown; dose, time, organism, isomer or construct need not be as stated for each record. Records carry a tag for their origin. Letters hold for one entry only. Additions like (4×) stand for listed records that agree.

Tested on: CCRIS mutagenicity, Ames/micronucleus/aberration tests
Assay: CCRIS mutagenicity studies
[1] = Test System: MOUSE LYMPHOMA, Strain/Indicator: L5178Y (TK+/TK-), Metabolic Activation: NONE, Method: SUSPENSION/PLATE
[2] = End Point: IN VITRO CHROMOSOMAL ABERRATIONS, Test System: CHO CELLS, Metabolic Activation: NONE

## CC1(C)COC1=O
Test System: AMES SALMONELLA TYPHIMURIUM, Strain/Indicator: TA100, Metabolic Activation: HAMSTER, LIVER, S-9, AROCLOR 1254, Method: PREINCUBATION
  mutagenic call: inactive; negative [0.03 to 33.3 µg/plate] and active; positive [10 to 3333.3 µg/plate]
Test System: AMES SALMONELLA TYPHIMURIUM, Strain/Indicator: TA100, Metabolic Activation: HAMSTER, LIVER, S-9, Method: PREINCUBATION
  mutagenic call: inactive; negative [0.03 to 33.3 µg/plate] and active; positive [10 to 10000 µg/plate]
Test System: AMES SALMONELLA TYPHIMURIUM, Strain/Indicator: TA100, Metabolic Activation: MOUSE, LIVER, S-9, AROCLOR 1254, Method: PREINCUBATION
  mutagenic call: inactive; negative [0.03 to 33.3 µg/plate] and active; positive [10 to 1000 µg/plate]
Test System: AMES SALMONELLA TYPHIMURIUM, Strain/Indicator: TA100, Metabolic Activation: MOUSE, LIVER, S-9, Method: PREINCUBATION
  mutagenic call: inactive; negative [0.03 to 33.3 µg/plate] and active; positive [10 to 3333.3 µg/plate]
Test System: AMES SALMONELLA TYPHIMURIUM, Strain/Indicator: TA100, Metabolic Activation: NONE, Method: PREINCUBATION
  mutagenic call: inactive; negative [0.03 to 33.3 µg/plate] and active; positive [10 to 1000 µg/plate]
Test System: AMES SALMONELLA TYPHIMURIUM, Strain/Indicator: TA100, Metabolic Activation: RAT, LIVER, S-9, AROCLOR 1254, Method: PREINCUBATION
  mutagenic call: inactive; negative [0.03 to 33.3 µg/plate] and active; positive [10 to 1000 µg/plate]
Test System: AMES SALMONELLA TYPHIMURIUM, Strain/Indicator: TA100, Metabolic Activation: RAT, LIVER, S-9, Method: PREINCUBATION
  mutagenic call: inactive; negative [0.03 to 33.3 µg/plate] and active; positive [10 to 3333.3 µg/plate]
Test System: AMES SALMONELLA TYPHIMURIUM, Strain/Indicator: TA1535, Metabolic Activation: HAMSTER, LIVER, S-9, AROCLOR 1254, Method: STANDARD PLATE
  mutagenic call: inactive; negative [10 to 6666 µg/plate] and active; positive [33.3 to 10000 µg/plate]
Test System: AMES SALMONELLA TYPHIMURIUM, Strain/Indicator: TA1535, Metabolic Activation: HAMSTER, LIVER, S-9, Method: STANDARD PLATE
  mutagenic call: inactive; negative [10 to 6666 µg/plate] and active; positive [33.3 to 10000 µg/plate]
Test System: AMES SALMONELLA TYPHIMURIUM, Strain/Indicator: TA1535, Metabolic Activation: MOUSE, LIVER, S-9, AROCLOR 1254, Method: STANDARD PLATE
  mutagenic call: inactive; negative [10 to 6666 µg/plate] and active; positive [33.3 to 10000 µg/plate]
Test System: AMES SALMONELLA TYPHIMURIUM, Strain/Indicator: TA1535, Metabolic Activation: MOUSE, LIVER, S-9, Method: STANDARD PLATE
  mutagenic call: inactive; negative [10 to 6666 µg/plate] and active; positive [33.3 to 10000 µg/plate]
Test System: AMES SALMONELLA TYPHIMURIUM, Strain/Indicator: TA1535, Metabolic Activation: NONE, Method: STANDARD PLATE
  mutagenic call: inactive; negative [10 to 6666 µg/plate] and active; positive [33.3 to 10000 µg/plate]
Test System: AMES SALMONELLA TYPHIMURIUM, Strain/Indicator: TA1535, Metabolic Activation: RAT, LIVER, S-9, AROCLOR 1254, Method: STANDARD PLATE
  mutagenic call: inactive; negative [10 to 6666 µg/plate] and active; positive [33.3 to 10000 µg/plate]
Test System: AMES SALMONELLA TYPHIMURIUM, Strain/Indicator: TA1535, Metabolic Activation: RAT, LIVER, S-9, Method: STANDARD PLATE
  mutagenic call: inactive; negative [10 to 6666 µg/plate] and active; positive [33.3 to 10000 µg/plate]
Test System: E. COLI, Strain/Indicator: WP2 UVRA, Metabolic Activation: HAMSTER, LIVER, S-9, AROCLOR 1254, Method: STANDARD PLATE
  mutagenic call: active; positive [10 to 6666 µg/plate] and inactive; negative [3.3 to 1000 µg/plate]
Test System: E. COLI, Strain/Indicator: WP2 UVRA, Metabolic Activation: HAMSTER, LIVER, S-9, Method: STANDARD PLATE
  mutagenic call: active; positive [10 to 6666 µg/plate] and inactive; negative [3.3 to 1000 µg/plate]
Test System: E. COLI, Strain/Indicator: WP2 UVRA, Metabolic Activation: MOUSE, LIVER, S-9, AROCLOR 1254, Method: STANDARD PLATE
  mutagenic call: active; positive [10 to 6666 µg/plate] and inactive; negative [3.3 to 1000 µg/plate]
Test System: E. COLI, Strain/Indicator: WP2 UVRA, Metabolic Activation: MOUSE, LIVER, S-9, Method: STANDARD PLATE
  mutagenic call: active; positive [10 to 3333.3 µg/plate] and active; positive [10 to 6666 µg/plate] and inactive; negative [3.3 to 1000 µg/plate]
Test System: E. COLI, Strain/Indicator: WP2 UVRA, Metabolic Activation: NONE, Method: STANDARD PLATE
  mutagenic call: active; positive [10 to 6666 µg/plate] and inactive; negative [3.3 to 1000 µg/plate]
Test System: E. COLI, Strain/Indicator: WP2 UVRA, Metabolic Activation: RAT, LIVER, S-9, AROCLOR 1254, Method: STANDARD PLATE
  mutagenic call: active; positive [10 to 6666 µg/plate] and inactive; negative [3.3 to 1000 µg/plate]
Test System: E. COLI, Strain/Indicator: WP2 UVRA, Metabolic Activation: RAT, LIVER, S-9, Method: STANDARD PLATE
  mutagenic call: active; positive [10 to 6666 µg/plate] and inactive; negative [3.3 to 1000 µg/plate]

## Cc1cc([N+](=O)[O-])ccc1N
Test System: AMES SALMONELLA TYPHIMURIUM, Strain/Indicator: TA98, Metabolic Activation: NONE, Method: PREINCUBATION
  mutagenic call: active; positive [study A] and inactive; negative [study B]

## N[C@@H](Cc1ccc(N(CCCl)CCCl)cc1)C(=O)O
End Point: In vivo chromosomal aberrations, Test System: Bone marrow cells, Species: Mouse, Strain/Sex: C57B1/6 / Female (wild type), Route: Oral (gavage)
  mutagenic call: inactive; negative and active; positive
End Point: In vivo chromosomal aberrations, Test System: Splenocytes, Species: Mouse, Strain/Sex: C57B1/6 / Female (wild type), Route: Oral (gavage)
  mutagenic call: active; positive; also recorded: active; positive. table ii in title says 26-wk but text says 13-wk treatment time

## CN(C)P(=O)(N(C)C)N(C)C
[1]
  mutagenic call: inactive; negative [study A] and active; positive [study B]

## OCc1ccccc1
[1]
  mutagenic call: active; positive (2×) and inactive; negative

## Cc1cc(/C=C/c2ccc3cc(N(C)C)ccc3[n+]2C)c(C)n1-c1ccccc1
Test System: AMES SALMONELLA TYPHIMURIUM, Strain/Indicator: TA98, Metabolic Activation: NONE, Method: STANDARD PLATE
  mutagenic call: inactive; negative (2×) and active; positive
Test System: AMES SALMONELLA TYPHIMURIUM, Strain/Indicator: TA100, Metabolic Activation: NONE, Method: STANDARD PLATE
  mutagenic call: inactive; negative and active; positive
Test System: AMES SALMONELLA TYPHIMURIUM, Strain/Indicator: TA1538, Metabolic Activation: RAT, LIVER, S-9, AROCLOR 1254, Method: STANDARD PLATE
  mutagenic call: inactive; negative and active; positive

## BrCC(Br)C1CCC(Br)C(Br)C1 (stereo unspecified)
End Point: IN VITRO CHROMOSOMAL ABERRATIONS, Test System: CHL CELLS, Metabolic Activation: S-9
  mutagenic call: inactive; negative; also recorded: active; positive (structural changes); also recorded: active; positive (structural changes); interlaboratory comparison between 2 labs both re
End Point: IN VITRO CHROMOSOMAL ABERRATIONS, Test System: CHO CELLS, Metabolic Activation: S-9
  mutagenic call: inactive; negative (2 independent analyses); also recorded: active; positive (structural changes) (2×)

## B#B
Test System: AMES SALMONELLA TYPHIMURIUM, Strain/Indicator: TA100, Metabolic Activation: NONE, Method: GAS EXPOSURE
  mutagenic call: active; positive [study A] and active; positive [study B] and inactive; negative [study B]

## ClC(Cl)=C(Cl)Cl
Test System: AMES SALMONELLA TYPHIMURIUM, Strain/Indicator: TA100, Metabolic Activation: NONE, Method: VAPOR CHAMBER
  mutagenic call: active; positive (2×) and inactive; negative
Test System: AMES SALMONELLA TYPHIMURIUM, Strain/Indicator: TA100, Metabolic Activation: RAT, LIVER, S-9, AROCLOR 1254, Method: VAPOR CHAMBER
  mutagenic call: active; positive (2×) and inactive; negative
Test System: AMES SALMONELLA TYPHIMURIUM, Strain/Indicator: TA1535, Metabolic Activation: NONE, Method: VAPOR CHAMBER
  mutagenic call: active; positive (2×) and inactive; negative
Test System: AMES SALMONELLA TYPHIMURIUM, Strain/Indicator: TA1535, Metabolic Activation: RAT, LIVER, S-9, AROCLOR 1254, Method: VAPOR CHAMBER
  mutagenic call: active; positive (2×) and inactive; negative

## [Cl][Sn][Cl]
[2]
  mutagenic call: active; positive; precipitation occurred at 500 and 750 ug/ml; also recorded: active; positive

## CCN(CC)C(=S)S
[2]
  mutagenic call: active; positive [study A] and inactive; negative [study B]

## ClC(Br)Br
End Point: IN VITRO CHROMOSOMAL ABERRATIONS, Test System: CHINESE HAMSTER LUNG FIBROBLAST CELLS (CHL/IU), Metabolic Activation: NONE
  mutagenic call: active; positive (ploidy) and inactive; negative
End Point: IN VITRO CHROMOSOMAL ABERRATIONS, Test System: CHO-LB CELLS, Metabolic Activation: RAT, LIVER, S-9, AROCLOR 1254
  mutagenic call: active; positive and inactive; negative

## ClC(Cl)(Cl)c1nc(-c2ccc3c(c2)OCO3)nc(C(Cl)(Cl)Cl)n1
End Point: In vitro chromosomal aberrations, Test System: Chinese hamster lung (CHL/IU) cells, Metabolic Activation: None
  mutagenic call: active; positive (structural changes and ploidy) (2×); also recorded: active; positive (structural changes and ploidy). ploidy response weak and not dose rela
